Sequences and labels used below:
B1: LINE1-mini (parent)
chain: GGCAGAGCUCAACACAGCGUGGCAAAGUGGCUGUGGCUAGACUGCC

The source gives no read counts; variants with many changes may rest on few reads.

In the series the parent is B1. The series is described as follows: self-cleavage, relative activity (ratio to wild type); higher = more cleavage; in vitro, sequencing; the parent is a self-cleaving ribozyme.
Take C3A G7A A11G C18U A39G: the self-cleavage was found to be 0.04.
On to A6G C31G U34C, for which the self-cleavage was 0.
As to C23A U38A C42U, the self-cleavage turned out to be 0.66.
For C3G A4U C42U, the self-cleavage turned out to be 0.04.
With A4U A11G U20C G29C, the self-cleavage came to 0.02.
For A14G A26C C37G A41U, the self-cleavage was found to be 0.01.
Then U28C G33C U38C C42A G44C, with 0; and C3A G27C G29A, with 0.14.
Under C3G A14U C46U stands 0.17; under G2C G7U U9C G35C, 0.06; under G5C A6U U20G, 0.04.
Then A4C G5C A6U, with 0.04; and C15G G17A G19U G33U U34A, with 0.1.
In the case of G7U U20G U38C G44A, the self-cleavage is 0.02.
Then G5U G21C G30C U32A C45A, with 0.04; and C13A U20A G36A, with 0.02.
Consider G7A G19U G29U G33A A39C C42G C45A, for which the self-cleavage came to 0.04.
As for A12C G27A C31A, the self-cleavage came out at 0.01.
On to C3U G17C G40C, for which the self-cleavage was found to be 0.09.
On to U9C C13U C15A C31U C42U, for which the self-cleavage is 0.01.
Then U9C G27C C31A C37U G44C, with 0.
Consider G21C G22A C37U, for which the self-cleavage is 0.08.
Then C23G C31U C45A, with 0.03; and G27A U28G U32A, with 0.03.
Then A4U U9A A26U, with 0.07; and A4U C10A C23G, with 0.02; and A25C U38G C45A, with 0.02.
C3U A4G U34C G36A C46U: the self-cleavage was found to be 0.04.
Turning to C18A G22A G40A, the self-cleavage was determined as 0.08.
As to A16G G17U G21U A24C, the self-cleavage was 0.2.
As for G7C C8G A26U, the self-cleavage is 0.18.
Then G5A A12C A14U G17U, with 0.03; and A12U A16C U34C, with 0.03; and G5U G7A A25U, with 0.65.
For G5A A11G A16C U34C A41C C46A, the self-cleavage is 0.03.
Take G21C A24G C37A: the self-cleavage came to 0.06.
Turning to U9C G19U C37U A41U, the self-cleavage turned out to be 0.02.
Then G17U U28A U34G, with 0.02.
Under G1A C10U A41G stands 0; under A4C C23A G29U U32C, 0.13; under C13A G27A U32G, 0.1.
On to C3G C18G G30U U34G, for which the self-cleavage is 0.01.
Under C10U C13G A26C G29A stands 0.06; under G1C A24G G30C G35A U43C C45U, 0.1; under C18A A26U U28G, 0.45.
Under U9A A11U G19A G30C G36U C45A stands 0.01; under G35C A39U C42U, 0.04.
Consider A4G G5U G36C, for which the self-cleavage came to 0.07.
G2C A14C U43A C46U: the self-cleavage stood at 0.06.
Then C3A G7C C13A A26G G40U, with 0.03; and A4C C13U U32A, with 0.05.
Take G5C C10G A14U: the self-cleavage was found to be 0.03.
Then G29A C37A A41G U43G, with 0.01; and C10G G29U U38G, with 0.05.
With C10G A14C G30U, the self-cleavage turned out to be 0.02.
Under C8G U20A A39C stands 0.05; under G17C G36A C42G C46G, 0.02.
As to C3A G5C G30A A39C C42U, the self-cleavage was found to be 0.09.
Under U32A U34A U43C C45G stands 0.02; under C8A G21A G30C C31A G33U, 0.16; under G7C G21A C23U G36U A39U C46G, 0.02.
Under C10G G30A U32G G35U stands 0.02; under A12U A24C A39G G44A, 0.01.
Then G7U G35C U38C G44U, with 0.07.
With C3U C10A A16G A25U C31U U34A G44U, the self-cleavage turned out to be 0.01.
On to U9C G17A U38G, for which the self-cleavage was found to be 0.01.
As to U32A C37A C46G, the self-cleavage came to 0.14.
Then U9A G22C C37G, with 0; and C3A A6G C10A A11U A41U, with 0.04; and A14G G33A C37A, with 0.04.
As for G2A G30A G35U C37U U43A, the self-cleavage came to 0.04.
Then C8G U9A C10U C18U G27A G44U, with 0.03; and U34A A41G G44A, with 0.
As to A26G G33A U34C, the self-cleavage amounted to 0.08.
Then A16U C23U G33C, with 0.02; and A11C G21C U38C, with 0.15.
Under A4U C8U G22C G27C G33A G40U stands 0.06; under G7U C18A C46U, 0.04.
Under G7U G27A U32G G36C stands 0.23.
Consider C3U A14G A41U C46U, for which the self-cleavage stood at 0.03.
Then G1A C23U C31G G33U, with 0.01.
Under A16U G27U C31U stands 0; under C3U G30C C37A, 0.07; under C3G G5A G33U C42G, 0.09.
Regarding U9G A12U C46U, the self-cleavage is 0.11.
Under A6U C15G U34A G40A stands 0.03; under A11C A12U G27A G36C, 0.06; under G29C G33U U34A, 0.11.
As for C3G C31G G33A U34C, the self-cleavage worked out at 0.09.
Take G2A C3A C31G: the self-cleavage is 0.39.
Under C23G A24U U43A stands 0.06; under G2A G27U C42A C46A, 0.06.
Under C3A C10G A12U G22U A26C G29U stands 0.01; under C3U A6G A25C, 0.15; under G2C G21A G22A A24G C31A, 0.23.
As to A4C A11C C13U A25C U34G A39U C42G, the self-cleavage amounted to 0.
With A12U G33C C37A A39G G40C A41G, the self-cleavage stood at 0.01.
Regarding G1C C3A A25G A26C G40A, the self-cleavage was 0.06.
G2A U9G C23U A24U G27C C31G U32C G35C: the self-cleavage was 0.02.
For the variant A11C G17U U20G G44U, the self-cleavage is 0.05.
Under G2U U9G G27C G35U G44U stands 0.02.
Then G2U C10G C15U, with 0.03.
For A14G U20C G35U, the self-cleavage is 0.06.
Regarding C8A A14C C18A C23U G29A U38A, the self-cleavage came to 0.05.
Then G19C C31G C42U, with 0.11; and A12U C13A U20C, with 0.05; and G5A U28C G30C A41G C46U, with 0.04.
Then C15G G22U C42A, with 0.03; and C13U U32G G36U, with 0.12; and A6U G27A C31A C45G, with 0.47.
As for G17U G30U C31U C42U, the self-cleavage turned out to be 0.04.
Under U9G C18U C42U stands 0.24; under A11G A24C C31A A41G, 0.01.
For C23A A41C U43A, the self-cleavage came out at 0.06.
Under C10A G17C G36U G40A stands 0; under C18U G30C C46U, 0.11.
For C8G A11U G19U C23U, the self-cleavage is 0.02.
Then U28A U34C C37U A41U, with 0.02.
As to G5U A14C G30U C45A, the self-cleavage came to 0.08.
Under G27A G30A C31U stands 1.37; under G2A A14U U20A A26C C46A, 0.08.
C3A U9A U20C G22C G33A: the self-cleavage amounted to 0.08.
Under G2A G22A G35C stands 0.14; under U9C C13U G30A A39C, 0.01.
With A26C G29A C37A G44A, the self-cleavage is 0.06.
Then C3G G17C G19A G35C G36C, with 0.03; and C3U A16U G35U, with 0.04.
Turning to C15U A25U G29A G33A U34G, the self-cleavage was 0.03.
As to C8A C23A C31A C42A, the self-cleavage is 0.18.
Under C3A U34A G40U stands 0.11.
As for A26G U28A G44A, the self-cleavage came to 0.52.
G7U A16C C18G U20C G35U G40C: the self-cleavage was 0.06.
Under G1C G22A G33A stands 0.05; under G7C G22U G30A G44A, 0.11.
As to G2A C8G C15G C31A, the self-cleavage stood at 0.09.
G27C C37A C46U: the self-cleavage was determined as 0.05.
For the variant A11C C15G C31A G33A, the self-cleavage worked out at 0.
Then C23A A25U U34A, with 0.25; and G1A G2C C15A G44U, with 0.1; and G5U C8G A12G A24C G30U C42A, with 0.12.
Then G1C C3U G27A, with 0.1; and G2C C3U C15G, with 0.03; and G5C U28C G36C C37U, with 0.01.
Then G5C C23A G30C, with 0.06.
G5A G7C C13G A24C U34G: the self-cleavage is 0.04.
Then G36U C37G A39G, with 0.07; and C8G G30U U34C, with 0.11; and G1A A11G A12C A16G G35A, with 0.
Under A4U C13A U28A stands 0.38.
For the variant C10G A12G G17C U20C G22C A26U G27A, the self-cleavage stood at 0.02.
On to C15A G19U G36U U43A, for which the self-cleavage stood at 0.03.
Under A14U G17A G29C G44A stands 0.04; under C13U G33U G40U, 0.05; under G19A C37A G44U, 0.1.
Under A4G C8U C10U A16U C18G C23G A24C U32A A39G stands 0; under C8G U28C G36C U38G G40C U43A, 0; under A24U U38C A41U, 0.3.
Under C15U G21U C46U stands 0.53; under C15A A25C A26U, 0.07.
Consider C8A A24U U28C, for which the self-cleavage was determined as 0.14.
Consider G2A A12U A16C C18U U28C U34C, for which the self-cleavage amounted to 0.19.
For the variant A25C G27C G36C C46G, the self-cleavage was 0.01.
Take G19C G27C G30A G40C: the self-cleavage was found to be 0.09.
Then G1A G17C A25G, with 0.09.
Under G7U G22C G36U stands 0.04.
For the variant G1A A6C C10A G29A G35A, the self-cleavage worked out at 0.02.
Then A6U A14G G36U, with 0.17.
